# Source: PubChem BioAssay (NCI)
# Values joined by “and” are separate entries in the source; they are usually repeats but may differ in a detail not shown here. Identical values can stand only once.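 Method: 48-hour compound exposure of cells in 96-well plates, five concentrations, linear interpolation of endpoints. At the GI50, growth is halved. At the TGI there is no net growth.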
# Tested on: NCI-H322M lung
# Assay: growth of human tumour cells (NCI), 48 h
Compound,TGI,GI50
[N-]=[N+]=NC(CI)c1cn([C@H]2C[C@H](O)[C@@H](CO)O2)c(=O)[nH]c1=O (some centres not stated),> 100 µM,–
CC1CC/C(=C\c2ccc(Cl)cc2)C2OC(N)=C(C#N)C(c3ccc(Cl)cc3)=C12 (configuration not stated),32.2 µM,–
CN(/N=C/c1cccc2cccnc12)c1ccccc1,> 100 µM,–
Cc1ccc(CNc2c3ccccc3nc3cc(NC(=O)CCN4CCCC4)ccc23)cc1,1.72 µM,0.468 µM
Nc1[nH]nc2nc(-c3cccs3)cc(C(F)(F)F)c12,> 25 µM,> 25 µM
NNC(=O)Cn1c2ccc(Br)cc2c2nc3ccccc3nc21,> 100 µM,–
CC1(C)[C@@H](OC(N)=O)[C@H]2O[C@H]2[C@]2(CO)[C@H]3CC[C@]4(C)[C@@H](c5ccc(=O)oc5)[C@@H](Cl)C[C@]4(O)C3=CC[C@@H]12,0.0274 µM,0.00788 µM
COc1ccc(-c2c(C#N)c(S)n(NS(=O)(=O)c3ccc(C)cc3)c(=O)c2C#N)cc1,> 100 µM,–
O=C1C(=O)c2ccccc2C(O)=C1CCCc1ccc(Oc2ccccc2)cc1,> 100 µM,–
C/C(CC(=O)Nc1ccc(Cl)cc1)=N\NC(N)=S,> 100 µM,–
Cn1cc(C2=C(c3cccc(OCC(O)CO)c3)C(=O)NC2=O)c2ccccc21 (configuration not stated),> 25 µM,> 25 µM
CN1c2ccccc2N(C)C23N(C)c4ccccc4N(C)C12N(C)c1ccccc1N3C (configuration not stated),> 100 µM,–
C[Si](C)(C)c1ccc(-c2sc(-c3ccc([Si](C)(C)C)s3)c3c2C[Si]2(C3)Cc3c(-c4ccc([Si](C)(C)C)s4)sc(-c4ccc([Si](C)(C)C)s4)c3C2)s1,> 100 µM,–
COc1cc(/C=C2/C[C@H]3[C@@H]4CC=C5C[C@@H](OC(C)=O)CC[C@]5(C)[C@H]4CC[C@]3(C)NC2=O)cc(OC)c1OC,> 100 µM,–
COc1cc(C2C(Cl)C(=O)N2NC(=O)c2ccc(N)cc2)ccc1O (configuration not stated),65 µM,–
CC1(C)[C@H]2CC[C@]1(C)[C@H](OC(=O)NNC(=O)O[C@@H]1C[C@@H]3CC[C@@]1(C)C3(C)C)C2,39.9 µM,–
CCOC(=O)c1c(N2CCCC2)ncn(Cc2ccccc2)c1=S,> 100 µM,–
CCOc1cc2ncc(C#N)c(Nc3ccc(OCc4ccccn4)c(Cl)c3)c2cc1NC(=O)/C=C/CN(C)C,–,0.0329 µM and 0.0364 µM
COC(=O)c1c(OC(C)=O)ccc2c1c1c(n2C)C(=O)c2ccccc2C1=O,74.7 µM,–
Cc1ccc(N2C(=O)C3C=CC(n4[nH]c(=O)n(Cc5ccccc5)c4=O)CC3C2=O)cc1 (configuration not stated),> 100 µM,–
C[C@@H]1CC[C@H]2C(C(O)CCCCC(O)C3=C(C(F)(F)F)O[C@@H]4O[C@@]5(C)CC[C@H]6[C@H](C)CC[C@@H]3[C@@]46OO5)=C(C(F)(F)F)O[C@@H]3O[C@@]4(C)CC[C@@H]1[C@]32OO4 (some centres not stated),> 100 µM,> 100 µM
O=C(Cn1c(C(=O)/C=C/c2cccs2)nc2ccccc21)c1ccc(Cl)cc1,> 100 µM,–
COc1cc(C(=O)NC2CCN(C)CC2)c(F)cc1Nc1ncc2c(n1)N(C1CCCC1)CC(F)(F)C(=O)N2C,13.9 µM,< 0.0233 µM

Compound,TGI,GI50
O=c1c2ccccc2nc(-c2ccccc2)n1NC1OC(CO)C(O)C(O)C1O (configuration not stated),> 100 µM,–
Cc1c(NC(=O)CSC(=S)N2CCN(Cc3ccccc3)CC2)c(=O)n(-c2ccccc2)n1C,> 100 µM,–
C[C@]12CCC3[C@@H](CC[C@@H]4c5nonc5CC[C@]34C)C1C/C(=N/O)C2=O (some centres not stated),> 100 µM,–
Clc1nc(Cl)c2ncn(C/C=C/COc3cccc(OC/C=C/Cn4cnc5c(Cl)nc(Cl)nc54)c3)c2n1,39.1 µM,18.2 µM
CC(C)C(OC(=O)c1ccc(NCc2cc(O)ccc2O)cc1)C(C)C,18.1 µM,–
COc1cc(/C=C2\Sc3scc(-c4cccc([N+](=O)[O-])c4)[n+]3C2=O)cc(OC)c1OC,99.6 µM,–
CC(=O)Nc1ccc(OC2=CCN(C)CC2)cc1,> 100 µM,–
COc1ccc(OC)c(NC(=O)CCC/C(CC(=O)c2ccc(O)c(OC)c2)=N\Nc2ccc([N+](=O)[O-])cc2)c1,> 100 µM,–
COc1c(Cl)cc(NC(=S)C#N)cc1Cl,72.9 µM,–
C=C1c2[nH]c3c([N+](=O)[O-])c(OC)ccc3c2CCN1C(C)=O,> 100 µM,–
Nc1ncnc2c1nnn2C1CCC(CP(=O)(O)O)C1 (configuration not stated),> 100 µM,–
Cc1ccc(C)c(NC(=O)CC/C(=N\NC(=O)c2c(O)ccc3ccccc23)C(C)C(=O)c2ccc(O)cc2)c1 (configuration not stated),> 100 µM,–
c1cn(C23C4C5C6C4C2C6C53)cn1 (configuration not stated),> 100 µM,–
C=C1C(=O)OC2/C=C(/C)C(OC(C)=O)CC(O)/C(C)=C\C(OC(=O)/C(C)=C\C)C12 (configuration not stated),> 100 µM,–
CC[C@H](CO)Nc1nc(NCc2ccccc2)n2ncc(C(C)C)c2n1,8.91 µM,1.86 µM
Cc1ccc(Nc2nc(C)c(C(/C=C/c3ccc(/C=C/C(=N/NC(=O)C[n+]4ccccc4)c4sc(Nc5ccc(C)cc5[N+](=O)[O-])nc4C)cc3)=N\NC(=O)C[n+]3ccccc3)s2)c([N+](=O)[O-])c1,> 100 µM,–
CCOP(=O)(OCC)C1CC(n2cc(C)c(=O)[nH]c2=O)OC1CO (configuration not stated),> 100 µM,–
CN(C)c1ccc2nc3ccc(=[N+](C)C)cc-3sc2c1,15.2 µM and 7.76 µM,0.65 µM and 1.29 µM
CCCCCC(C)SC1(C(=O)OC)CC(OC(C)=O)C(NC(C)=O)C([C@H](OC(C)=O)[C@@H](COC(C)=O)OC(C)=O)O1 (some centres not stated),> 100 µM,–
O=C(O)c1nc(-c2ccccc2)[nH]c1C(=O)O,30.9 µM,–
COC(=O)CCC(NC(=S)N/N=C/c1ccco1)C(=O)OC (configuration not stated),> 100 µM,–
COc1ccc(C2=NN(c3ccccc3)C[N+](c3ccc(OC)cc3)=N2)cc1,75.6 µM,–
O=c1[nH]nc(-c2ccccc2)n1/N=C/c1cccnc1,> 100 µM,–

Compound,TGI,GI50
CCOC(=O)c1cc2c3c(c(C(C)=O)c(O)c2[nH]1)N(CC(C)CC)CC3 (configuration not stated),> 100 µM,–
CC1=C2C(=CC(C)(C)C2O)C(=O)C(C)(O)C12CC2 (configuration not stated),0.316 µM,–
C1CN(SSN2CCOCC2)CCO1,> 100 µM,52.1 µM
COc1cccc(-n2ncc3c(N/N=C/c4ccncc4)ncnc32)c1,> 25 µM,> 25 µM
COC(=O)c1c(O)ccc2c1c1c(n2Cc2cccc(C)c2)C(=O)c2ccccc2C1=O,22.2 µM,–
COc1ccc(/C=C2\S/C(=N/Nc3nc(-c4ccccc4)cs3)NC2=O)cc1OC,> 100 µM,–
CCCCN(CCCC)c1ccc(C(=N)c2ccc(N(CCCC)CCCC)cc2)cc1,3.27 µM,1.69 µM
COc1cc([C@H]2OC[C@H]3[C@@H]2CO[C@@H]3c2cc(OC)c3c(c2)OCO3)cc(OC)c1OC,> 100 µM,–
Nc1nc(Nc2ccc(C3CCC(N4CCOCC4)CC3)cc2)nn1-c1ccccn1 (configuration not stated),> 100 µM,21.2 µM
Cc1cn(Cc2cnnn2CC2OC(n3cc(C)c(=O)[nH]c3=O)CC2O)c(=O)[nH]c1=O (configuration not stated),> 100 µM,–
OC(CCNCc1ccccc1)c1ccc2ccccc2c1 (configuration not stated),58.8 µM,–
COc1ccc(/C=C2\CCCC3=C2NC(N)=NC3c2ccc(OC)c(OC)c2)cc1OC (configuration not stated),> 100 µM,> 100 µM
CC1=C(CO)C(=O)O[C@@H]([C@@H](C)[C@H]2CC[C@H]3[C@@H]4C[C@@H](O)[C@@]5(O)CC=CC(=O)[C@]5(C)[C@H]4CC[C@]23C)C1,> 100 µM,–
Cc1ccc(S(=O)(=O)Nc2cccc3[nH]c(C(F)(F)F)nc23)cc1,> 70.5 µM,1.77 µM
COc1ccc(C(C#N)Cc2cc(OC)c(OC)c(OC)c2)cc1 (configuration not stated),> 100 µM,–
COc1ccc2c(c1)c(CC(=O)O)c(C)n2C(=O)c1ccc(Cl)cc1,> 100 µM,–
CC(C)(O)CC(=O)NCCn1ccc2ncnc(Nc3ccc(Oc4cccc(C(F)(F)F)c4)c(Cl)c3)c21,> 10 µM,0.602 µM
CCNC(=O)c1cc(/C=C/c2ccc([N+](=O)[O-])o2)nc2ccccc12,> 100 µM,–
O=C1c2c(O)cccc2C(C2OC(CO)C(O)C(O)C2O)c2cc(CO)cc(O)c21 (configuration not stated),> 100 µM,–
CS[C@]12C(=O)C[C@@]3(C)[C@@H](CC[C@]3(O)C(=O)CO)[C@@H]1CCC1=CC(=O)CC[C@@]12C,> 100 µM,–
COc1ccc(-n2c(=O)n(C)c(=O)n2-c2ccc(OC)cc2)cc1,> 100 µM,–
S=C1SCN(Cc2ccco2)CN1c1ccc(Br)cc1,62.5 µM,–
O=C1CC(S(=O)(=O)O)C=C1Nc1cccc(Cl)c1 (configuration not stated),> 100 µM,–

Compound,TGI,GI50
COc1ccccc1Cc1nc(-c2ccccc2)nn(C2OC(COC(C)=O)C(OC(C)=O)C(OC(C)=O)C2OC(C)=O)c1=S (configuration not stated),> 100 µM,–
O=C1c2cc3c(cc2CC12Cc1ccc4c(c1C2=O)CCCC4)CCCC3 (configuration not stated),> 100 µM,–
CCc1cccc(C)c1NC(=O)C(=O)Cc1nc2ccccc2s1,> 100 µM,–
CCCCCCCCCCCCCCCCCCNc1ccn(C2OC(COP(=O)(O)OCC3OC(n4cc(F)c(NCCCCCCCCCCCCCCCCCC)nc4=O)CC3O)C(O)C2O)c(=O)n1 (configuration not stated),> 100 µM,–
CC1(C)CC(=O)c2c(nc3ccc4ccccc4c3c2-c2ccc(NC(=O)CCCCCCCCC(=O)Nc3ccc(-c4c5c(nc6ccc7ccccc7c46)CC(C)(C)CC5=O)cc3)cc2)C1,> 100 µM,–
COC(=O)[C@H]1CO[C@H]2C/C(C)=C/CC/C(C)=C/CC[C@@]3(C)O[C@@H]3C[C@H]21,38 µM,–
O=C(COc1ccc(/C=C2\Oc3ccccc3C2=O)cc1)Nc1nc2c(s1)CCCC2,> 100 µM,52 µM
C[C@]12CC[C@H]3[C@@H](CC[C@]4(O)C[C@@H](O)CC[C@]34/C=N/O)[C@@]1(O)CC[C@@H]2C1=COC(=O)C1,1.15 µM,–
O=C(NC[C@H](O)CO)c1ccncc1Nc1ccc(I)cc1F,> 100 µM,0.274 µM and 1.08 µM
O=C(Nc1cccc(NC(=O)Nc2cc(C(F)(F)F)ccc2Cl)c1)Nc1cc(C(F)(F)F)ccc1Cl,> 100 µM,5.8 µM
CCOC(=O)c1cnc2oc3ccc(O)cc3c2c1-c1ccccc1,> 100 µM,–
O=c1oc2ccccc2cc1-c1cn2cc(Cl)ccc2n1,> 43.4 µM,–
C=C(C)C(O)C(O)c1c(OC)ccc2ccc(=O)oc12 (configuration not stated),> 100 µM,–
N#Cc1ccccc1-c1nc2c3c(c(N)ccc3n1)C(=O)c1ccccc1-2,> 100 µM,–
NC(=O)c1c(NC(=O)c2ccc3c(c2)OCO3)sc2c1CCC(=O)C2,> 100 µM,2.99 µM
COc1ccc(C2N(NC(=O)c3ccncc3)C(=O)CS2(=O)=O)cc1F (configuration not stated),> 100 µM,–
CCOc1ccccc1N=Nc1c(C)[nH]n(-c2nc(-c3ccccc3)cs2)c1=O,> 100 µM,93.2 µM
CCSCCCN(CCCSCC)CCCSCC,> 100 µM,–
CC1=NN(c2nc(N)nc(/C(C#N)=C/c3cccn3-c3cc(Cl)cc(Cl)c3)n2)C(C)(C)C1,> 100 µM,–
CC#CC(=O)SCCNC(=O)CC,> 10 µM,–
CC(C)(Oc1ccc(Cl)cc1)C(=O)N(C(=O)N1CCC(c2ccccc2)CC1)c1ccccc1,> 100 µM,–
COc1ccc(-c2cc(-c3cc4cc(Br)ccc4nc3Cl)c(C#N)c(N)n2)cc1,> 12.5 µM,–
